In PMC5836133:
This is one part of the list. At the low end of the ranking, values are background and their order means little.

test system: T1, GST-NbGlk1(82-244); assay: protein-binding microarray; details: NbGlk1 is a Golden2-like transcription factor of Nicotiana benthamiana; high values mean tight binding; most listed sequences are background and not binding sites; double strand, one strand shown;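 also: rank-based score ranging −0.5 to +0.5 with E above 0.45 taken as significant binding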
T1 sequence: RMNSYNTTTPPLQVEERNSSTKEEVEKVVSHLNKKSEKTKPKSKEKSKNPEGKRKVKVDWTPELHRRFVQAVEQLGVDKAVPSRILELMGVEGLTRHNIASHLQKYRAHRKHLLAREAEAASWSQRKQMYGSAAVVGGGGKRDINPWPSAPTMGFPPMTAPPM

| Sequence | binding signal |
| --- | --- |
| AATTCCCT | 0.246 E-score |
| ATCAGGTA | 0.221 E-score |
| CAACAGTA | -0.042 E-score |
| AACGTGGG | -0.0371 E-score |
| ACATCTCT | 0.105 E-score |
| CACTGCGC | 0.0543 E-score |
| AAGAGTGA | -0.0802 E-score |
| AACGTAAC | 0.0817 E-score |
| AAATTAGG | 0.0772 E-score |
| ATCGTACC | 0.0685 E-score |
| CACGAGGG | -0.097 E-score |
| ATGTGCTG | -0.0549 E-score |
| AGTTGTTG | 0.0124 E-score |
| ATAACGTG | 0.0555 E-score |
| AACGAACA | -0.119 E-score |
| ATTATATG | 0.144 E-score |
| AATGAATG | -0.0176 E-score |
| ATACCAAA | 0.106 E-score |
| CACCCTTC | -0.185 E-score |
| ACCTCGCG | -0.185 E-score |
| ATAAGCAA | 0.091 E-score |
| ACGTATGA | -0.0364 E-score |
| CAAAGATC | 0.308 E-score |
| AATGGAGA | 0.00542 E-score |

| Sequence | binding signal |
| --- | --- |
| CACCGCAA | 0.00416 E-score |
| ACAGAGCC | -0.222 E-score |
| AGGCAACG | -0.152 E-score |
| ACTGCCTA | -0.118 E-score |
| AGGCAGAA | -0.0935 E-score |
| AATCCTAT | 0.376 E-score |
| ACCGTGCT | -0.0444 E-score |
| AAGCAATG | -0.0539 E-score |
| AAATATGG | 0.272 E-score |
| ACGAGGCT | -0.164 E-score |
| AGCCGCCG | -0.377 E-score |
| ACGTACTA | 0.0425 E-score |
| AATATGAC | 0.0698 E-score |
| AAAAAAAG | -0.0295 E-score |
| ATCATTCG | 0.175 E-score |
| ACAATACG | 0.121 E-score |
| AAGCCGTG | -0.206 E-score |
| AATACTTC | 0.0798 E-score |
| CAATGAAA | 0.0318 E-score |
| AGAGGGCC | -0.362 E-score |
| ACAGACAG | -0.0566 E-score |
| CAAATACC | 0.0266 E-score |
| ATTATAAG | 0.253 E-score |
| AAGTCCAT | -0.227 E-score |

| Sequence | binding signal |
| --- | --- |
| AGACAAAA | -0.0357 E-score |
| CACCCAAA | -0.0526 E-score |
| ACATAGCC | -0.182 E-score |
| ATGATGTG | -0.00627 E-score |
| ATGAATGG | 0.0261 E-score |
| AGCTCCAA | -0.164 E-score |
| AGGCCTCG | -0.282 E-score |
| CAAGCGGA | -0.0976 E-score |
| AATGTTTC | 0.0873 E-score |
| AAGCGCGG | -0.101 E-score |
| ATCCTACC | 0.175 E-score |
| ATTCCGGC | 0.0706 E-score |
| AGCCCACT | -0.338 E-score |
| ACTTGTTA | -0.102 E-score |
| AAGACAAT | 0.149 E-score |
| AGGAAATA | 0.239 E-score |
| AGGAATGA | -0.135 E-score |
| ACAAGAAG | -0.14 E-score |
| AGTACACA | -0.104 E-score |
| AGCCCCTA | -0.191 E-score |
| AACGCGTC | -0.0544 E-score |
| AACTGATG | -0.0439 E-score |
| ACTACGCA | 0.00534 E-score |
| AAGACCCC | -0.262 E-score |

| Sequence | binding signal |
| --- | --- |
| AGCGCTCG | -0.19 E-score |
| AGCGAGGC | -0.173 E-score |
| AGATTTAA | 0.269 E-score |
| AGGTCCAT | -0.262 E-score |
| ACTAGGCT | -0.14 E-score |
| ATCCCCAT | 0.277 E-score |
| AGTTGCAG | -0.0444 E-score |
| CAAGAGCA | -0.119 E-score |
| AAGAAATT | 0.14 E-score |
| AAAGAGCC | -0.233 E-score |
| AATCCGGT | 0.393 E-score |
| AAGGGAGA | -0.111 E-score |
| ACTGCGTG | -0.236 E-score |
| AGTTTAAG | -0.0011 E-score |
| AGATCTGG | 0.364 E-score |
| AATCGAGC | 0.207 E-score |
| AGGGAACG | -0.298 E-score |
| ATCGACAG | 0.111 E-score |
| ACCGGCCG | -0.12 E-score |
| ACTTTGAC | -0.167 E-score |
| ACCGGTCA | -0.0022 E-score |
| AACGTTAC | 0.0277 E-score |
